Hit rate of the full screen: of about 390,000 compounds, about 930 (0.24%) were called active. This list was built around the results that the source calls inconclusive (neither active nor inactive); the mix of calls is not that of the screen. Calls follow the shape of the dose curve; as a rule, active = well fitted activation curve with a large enough effect; inconclusive = small, poorly fitted or top-dose-only effect; inactive = no such curve, though single readings can be large or run the other way. Where the call is inconclusive, the potency comes from a doubtful curve fit.
Assay: qHTS for Suppressors of FUS Proteinopathy: Primary screen using FUS-linked yeast assay; also: nearly all actives have a fitted effect of over 55% in size;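 as to growth rescue (activation): plate controls were DMSO vehicle for no effect and reference control for full effect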
Conditions: S. cerevisiae FUS-expressing, OD600, 24 h; Potency: growth rescue; growth rescue (activation): at 76.6 µM (top of the series)
Summary of the method: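 Absorbance at 600 nm, taken 24hr after compound addition, measured rescue of FUS-yeast growth at 30C. Induction used 2% galactose with seeding at OD 0.005. Controls: CP55940 from 92uM final, DMSO only.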
Potency is read from the fitted curve at half-maximal effect; tags tell the direction and shape of the fitted curve.

Row | SMILES | Potency | growth rescue (activation)
1 | O=C(O)c1ccccc1-c1ccc(/C=c2\sc3nc4cc(Br)cnc4n3c2=O)o1 | inconclusive: 12.6 µM [activator, partial curve] | 
2 | CC[C@]12c3[nH]c4cc(-c5ccco5)ccc4c3CCN1C(=O)[C@@H](CC(=O)NC/C=C(\C)CCC=C(C)C)C[C@@H]2C(=O)N1CCN(C(=O)C2CC2)CC1 | inconclusive: 28.2 µM [activator, single point] | 
3 | CCN(CC)c1ccc2nc3ccccc3[n+](CC)c2c1 | inconclusive: 31.6 µM [activator, single point] | 
4 | COCCCNc1c2c3c(cccc3[nH]c1=O)C(=O)c1ccccc1-2 | inconclusive: 12.6 µM [activator, partial curve] | 
5 | Cc1cc(Cl)ccc1OCCCC(=O)Nc1cc(S(=O)(=O)N2CCOCC2)ccc1N1CCOCC1 | inconclusive: 31.6 µM [activator, single point] | 
6 | Cc1n[nH]c(C)c1S(=O)(=O)N(CC(=O)Nc1ccc2c(c1)OCCO2)c1ccc(C(C)C)cc1 | inconclusive: 7.94 µM [activator, partial curve, poor fit] | 
7 | COc1ccc(S(=O)(=O)N(C)C[C@H]2Oc3ccc(NC(=O)Cc4ccccc4)cc3C(=O)N([C@H](C)CO)C[C@@H]2C)cc1 | active: 28.2 µM | 
8 | CCN(CC)C(=O)Cn1c(=O)cc(C)c2c(C)nn(-c3cccc(Cl)c3C)c21 |  | inactive: 29.7%
9 | COc1ccc(C2NC(=S)NC3=C2CCCC3=C2SCCS2)cc1 (stereo not drawn) | inconclusive: 15.8 µM [activator, partial curve, poor fit] | 
10 | COc1ccc(NC(=O)Cn2cc(S(=O)(=O)N3CCN(c4ccccc4F)CC3)c3ccccc3c2=O)cc1Cl | inconclusive: 8.91 µM [activator, partial curve, poor fit] | 
11 | C[C@@H]1CN([C@H](C)CO)C(=O)c2c(c3ccccc3n2C)-c2ccccc2CO[C@H]1CN(C)Cc1ccc(Oc2ccccc2)cc1 | inconclusive: 20 µM [activator, partial curve, poor fit] | 
12 | C#CCOCCOCCOCCNc1nc(N2CCN(C(=O)CCCCCCCCCCNC(=O)Cn3cc(CCCCCN)nn3)CC2)nc(N2CCN(C(=O)CCCCCCCCCCNC(=O)[C@H]([C@@H](C)CC)n3cc(CCCCCN)nn3)CC2)n1 | inconclusive: 14.1 µM [activator, partial curve, poor fit] | 
13 | O=C(NCC1CCCO1)c1cccc2c1C(=O)c1ccc(N3CCC(Cc4ccccc4)CC3)cc1S2(=O)=O (stereo not drawn) | active: 10 µM | 
14 | Cc1ccc2c(c1)[C@H]1[C@H](CO2)[C@H](c2ccccc2)[C@]2(C)C(=O)Nc3ccc(Cl)cc3C(=O)N12 | inconclusive: 20 µM [activator, single point] | 
15 | Cc1ccccc1-c1nc(CS(=O)CC(=O)NC(C)CCc2ccccc2)c(C)o1 (stereo not drawn) | inconclusive: 50.1 µM [activator, single point] | 
16 | CC1(c2ccc3ccccc3c2)NC(=O)N(CC(=O)N2CCN(c3ccccc3O)CC2)C1=O (stereo not drawn) | inconclusive: 50.1 µM [activator, partial curve, poor fit] | 
17 | CCOC(=O)[C@]12CCCCC/C=C\1N(CCc1ccc(Cl)cc1)C(=O)[C@H]2CC(=O)N1CCC(c2ccccc2)CC1 | inconclusive: 28.2 µM [activator, partial curve, poor fit] | 
18 | COc1ccc(-c2noc(CSc3nc(-c4ccccc4)cc(=O)[nH]3)n2)cc1 | inconclusive: 7.94 µM [activator, full curve, poor fit] | 
19 | O=C(CCc1ccccc1)NCC(=O)N/N=C/c1ccc(O)cc1O |  | inactive: -14.6%
20 | CCN(CC)C(=O)C1=C(C)N(Cc2ccc(C(C)(C)C)cc2)C(=O)C(CC(=O)NCCCCc2ccccc2)C1 (stereo not drawn) | inconclusive: 50.1 µM [activator, single point] | 

Row | SMILES | Potency | growth rescue (activation)
21 | C[C@@H]1CN([C@H](C)CO)C(=O)Cc2cc(NC(=O)Nc3ccccc3)ccc2O[C@@H]1CN(C)C(=O)Nc1ccc2c(c1)OCO2 | inconclusive: 17.8 µM [activator, single point] | 
22 | CCCOc1ccc(C2C(=O)N(C3CCCCCC3)CC(=O)N2Cc2ccccc2OC)cc1OC (stereo not drawn) | inconclusive: 50.1 µM [activator, partial curve, poor fit] | 
23 | Cc1nc(S(=O)(=O)c2ccc(Cl)cc2Cl)nc2c1CCC2 |  | inactive: 13.6%
24 | O=C(OCC(=O)N(Cc1ccccc1)C1CCS(=O)(=O)C1)c1cc2c(s1)CCCC2 (stereo not drawn) | inconclusive: 50.1 µM [activator, single point] | 
25 | CCOC(=O)c1ccc(NCCOC)c([N+](=O)[O-])c1 |  | inactive: -1.13%
26 | CCOC(=O)c1ccc(CC(=O)c2oc3cc(O)ccc3c2C)o1 | inconclusive: 11.2 µM [activator, partial curve] | 
27 | CSc1cccc(NC(=O)CN(c2cccc(C)c2)S(C)(=O)=O)c1 |  | inconclusive: 62.4% [activator]
28 | CCCc1nc(SCC(=O)Nc2ccccc2)c2c(=O)n(C)c(=O)n(C)c2n1 |  | inactive: -27.7%
29 | Cc1ccc(C(=O)c2c(NC(=O)c3ccccc3C)sc(C)c2C)cc1 |  | inconclusive: 73.9% [activator]
30 | Cc1cc(=O)oc2cc(NC(=O)c3cccc(S(C)(=O)=O)c3)ccc12 | inconclusive: 12.6 µM [activator, partial curve, poor fit] | 
31 | CCOC(=O)C1CCCN(CC(=O)Nc2c(C(=O)OC)[nH]c3ccc(Cl)cc23)C1 (stereo not drawn) |  | inactive: 8.05%
32 | COc1cc2c(cc1OC)CN(C(=O)c1ccc(Cl)c(S(=O)(=O)N3CCCC3)c1)CC2 | inconclusive: 15.8 µM [activator, partial curve, poor fit] | 
33 | Cc1noc(C)c1C(=O)OCC(=O)c1c[nH]c2ccccc12 | inconclusive: 28.2 µM [activator, single point] | 
34 | O=C(CSCc1ccc(F)cc1)N1CCN(c2ccccc2F)CC1 |  | inactive: 22.6%
35 | Cn1cccc1Cc1nnc(SCC(=O)Nc2ccc3c(c2)OCCO3)n1-c1ccc(F)cc1 | inconclusive: 22.4 µM [activator, single point] | 
36 | O=C(NC(=S)Nc1cccc2cccnc12)c1cccs1 |  | inactive: -19.4%
37 | C=CCn1c2ccccc2c(=O)c2cc(C#Cc3ccccn3)ccc21 |  | inactive: 1.58%
38 | CCOc1ccc(CCN2C(=S)N([C@@H](Cc3ccc(O)cc3)CN3CCC[C@@H]3CN3C(=S)NC[C@@H]3Cc3ccccc3)C[C@@H]2Cc2ccccc2)cc1 | inconclusive: 50.1 µM [activator, single point] | 
39 | O=C(NCCc1ccccc1)c1ccc2c(c1)N(Cc1ccc(Cl)cc1)C(=O)CS2 | inconclusive: 31.6 µM [activator, partial curve, poor fit] | 
40 | COc1cc(C)ccc1OCCSc1nc2ccc(NC(=O)c3ccco3)cc2s1 | inconclusive: 28.2 µM [activator, single point] | 

Row | SMILES | Potency | growth rescue (activation)
41 | Cc1cc(C)nc(N2CCC(C(=O)O)CC2)n1 |  | inactive: 21.8%
42 | COc1cc(NC(=O)COc2cc(O)c3c(c2)OC(C)(C)CC3=O)cc(OC)c1 | inconclusive: 28.2 µM [activator, partial curve] | 
43 | CCn1cc(C(=O)N(C)Cc2ccccc2)c(=O)c2cc(S(=O)(=O)N3CCc4ccccc4C3)ccc21 | inconclusive: 25.1 µM [activator, single point] | 
44 | COC(=O)CCC(=O)OC1(C)C(=O)C2=CN(Cc3ccc4c(c3)OCO4)C(c3ccc(OC)cc3)=CC2=C(Br)C1=O (stereo not drawn) | inconclusive: 39.8 µM [activator, single point] | 
45 | CCOC(=O)[C@@H]1[C@H]2COc3ccc(Br)cc3[C@@H]2N2C(=O)N(c3ccccc3)C(=O)[C@]12C | inconclusive: 28.2 µM [activator, single point] | 
46 | O=C(c1ccccc1Cc1ccccc1)N1CCN(S(=O)(=O)c2ccc(F)cc2)CC1 |  | inactive: -10.6%
47 | O=C(Nc1ccccc1N1CCN(C(=O)c2ccccc2)CC1)c1cccc(Cl)c1 | inconclusive: 31.6 µM [activator, single point] | 
48 | CCOC(=O)/C(C#N)=C1/SC(CC)C(=O)N1c1ccc(Br)cc1 (stereo not drawn) | inconclusive: 31.6 µM [activator, single point] | 
49 | COC(=O)[C@]12C[C@H](CC(=O)NCc3ccc(C)o3)C(=O)N(Cc3ccco3)C1=C[C@H](C1CCCC1)O[C@@H]2C | inconclusive: 50.1 µM [activator, partial curve, poor fit] | 
50 | CCCNC(=O)c1cc(C2CCCCN2C(=O)CCc2ccccc2)on1 (stereo not drawn) |  | inactive: -9.29%
51 | O=C(NCCc1ccc(Cl)cc1)c1c2c(nc3ccccc13)C(=O)N(C1CCCCC1)C2 |  | inactive: -1.76%
52 | Cc1cc2c(cc1S(=O)(=O)NCc1ccccc1)NC(=O)CO2 |  | inactive: -12.3%
53 | O=C1c2ccc(-c3ccc(F)cc3OCc3ccccc3)cc2S(=O)(=O)c2cccc(C(=O)N3CCCC3)c21 | inconclusive: 31.6 µM [activator, single point] | 
54 | COc1ccc(-c2c(-c3ccc(OCC(=O)NN)cc3O)n[nH]c2C)cc1OC | inconclusive: 17.8 µM [activator, single point] | 
55 | COc1cccc(CNC(=O)c2cc3c(-c4ccccc4F)nn(C)c3s2)c1 | inconclusive: 22.4 µM [activator, partial curve, poor fit] | 
56 | O=C(CCCn1c2ccccc2c(=O)c2ccccc21)Nc1cccc(Cl)c1 | inconclusive: 50.1 µM [activator, single point] | 
57 | O=C(Cn1c(C(=O)NCCCN2CCOCC2)cc2sccc21)c1ccccc1 | inconclusive: 12.6 µM [activator, partial curve, poor fit] | 
58 | COC(=O)[C@]12C[C@H](CC(=O)NCCc3ccccc3OC)C(=O)N(Cc3ccc(Cl)cc3Cl)C1=C[C@H](COCc1ccccc1)O[C@@H]2C | inconclusive: 15.8 µM [activator, partial curve, poor fit] | 
